According to publication PMC12040169 (PLOS Biology, 2025):
The other results are listed elsewhere or left out.

tested on: T1, C. trachomatis L2/434/Bu expressing GFP (CTL2-GFP); design: species or system HeLa; C. trachomatis total inclusion area by high-content imaging, normalised to DMSO; settings: total inclusion area; 28.5 h, 10 µM; inhibitor
T1 construct: L2/434/Bu GFP intracellular growth in HeLa cells
Summary of the method: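 Imaging read-out: GFP inclusions and Hoechst nuclei captured by high-content imaging after fixation. Inclusion area/number = chlamydial growth; nuclei count = host cell viability. MIC calculated per earlier method.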

Structure (SMILES)	% of control remaining
C[C@@H](Cn1nnc2ccccc21)NC(=O)Cc1ccccc1F [CBK282305]	97.012
COc1cccc2sc(Nc3nc(-c4cccnc4)cs3)nc12 [CBK287470]	61.7441
CN1CCN(C(=O)c2ccsc2NS(=O)(=O)/C=C/c2ccccc2)CC1 [CBK042267]	99.6255
Cc1cc(OCCC#N)cc(C)c1Cl [CBK015872]	84.9971
CC(=O)N(C)c1ccc(NC(=O)/C=C/C(=O)O)cc1 [CBK287162]	111.104
CC(C)C[C@@H]1N[C@H](C(=O)NC2CC2)Cc2cn(Cc3nccn3C)c3cccc1c23 [CBK289423]	112.784
Cc1nn(C)c(N2CCNCC2)c1NC(=O)c1ccccc1 [CBK050257T]	105.765
O=C(Cc1nnc(-c2ccncc2)o1)NCCC1=CCCCC1 [CBK288605]	86.7086
COC(=O)Cn1c(-c2ccc(OC)cc2)cc2cccnc21 [CBK282268]	87.2929
C[C@H](c1ccccc1)N1C(=O)[C@@H]2CN(C(=O)CC(C)(C)CC(=O)O)CCN2C1=O [CBK289639]	97.4632
CCNC(=O)C1=C(C(=O)NCC)N2C(=NC(C)(C)c3ccccc32)S1 [CBK010172]	90.5591
Cn1ccc(C2CCCCCN2C(=O)Cc2cccs2)n1 (stereo not drawn) [CBK283047]	78.524
Cc1cc(C(=O)Nc2ccc(S(=O)(=O)Nc3onc(C)c3C)cc2)no1 [CBK268166]	44.5738
O=C(O)CNS(=O)(=O)c1cc(Cl)sc1Cl [CBK034452]	73.1976
Cc1c(C(C)NC(=O)Nc2ccc(F)cc2F)cnn1C (stereo not drawn) [CBK266986]	89.1533
CC(O)c1cccc(NC(=O)CCC(=O)O)c1 (stereo not drawn) [CBK264691]	103.619
C=Cn1ncc(CN2CCc3[nH]c4ccc(OCC)cc4c3C2)c1C [CBK282574]	117.304
CN(C)c1ccc2cccc(O)c2n1 [CBK149729]	73.641
O=C(O)CSc1nnc2n(-c3ccccc3)c3ccccc3n12 [CBK268557]	102.316
O=C(NC1CCc2ccccc21)c1cnc(-c2ccc(Cl)cc2)c(-c2ccc(O)cc2)c1 (stereo not drawn) [CBK036629]	86.4191
CC1CCCCN1CCNC(=O)c1ccc(Cn2c(=S)[nH]c3ccccc3c2=O)cc1 (stereo not drawn) [CBK265674]	67.9158
COc1ccccc1-c1nccnc1OCc1cccc(OC)c1OC [CBK106825]	82.8175
CCOC(=O)C1=C(C)NC(=O)NC1c1ccc(-c2cccc([N+](=O)[O-])c2)o1 (stereo not drawn) [CBK072102]	109.17
CCC(CO)Nc1cncc(-c2cccc(O)c2)n1 (stereo not drawn) [CBK037777]	68.5095
O=C(Nc1ccc([N+](=O)[O-])cc1)Nc1ccc(N2CCOCC2)c2nonc12 [CBK266885]	83.1827
CC(C)NC(=O)Nc1ccc(C(=O)N(CC#N)C2CC2)cc1 [CBK306120]	62.7392

Structure (SMILES)	% of control remaining
O=C(c1ccc(O)cc1)c1ccc(C(=O)O)c(C(=O)O)c1 [CBK261075]	106.593
CCc1nn(C)cc1CN1CCOC(c2nc(C(C)(C)C)cs2)C1 (stereo not drawn) [CBK304513]	77.2593
CC(Nc1ccc2[nH]c(=O)[nH]c2c1)C(=O)N1CCN(c2ccccc2)CC1 (stereo not drawn) [CBK296748]	80.1484
CN(CC1(C)COC1)C(=O)c1cn2cc(Cl)ccc2n1 [CBK281721]	90.2314
COC(=O)[C@@H]1CN(C(=O)C2CCCC2)CCN1C(=O)c1cccs1 [CBK289609]	100.646
CC(Cn1cccn1)NCC(=O)NC1(C#N)CCCCC1 (stereo not drawn) [CBK304845]	21.5697
O=C(CSc1ccc2nnc(-c3ccccn3)n2n1)N1CCCCC1 [CBK287621]	96.5552
O=C(O)C1CNC(=O)N1C(=O)OCc1ccccc1 (stereo not drawn) [CBK057462]	77.0996
Cc1ncsc1CCN(C)C(=O)Cn1nc(C)c2ccccc2c1=O [CBK306893]	51.1699
CC(C)Cc1nnc(-c2ccccc2Cl)n1CC1CC1 [CBK200097]	110.203
CC(=O)c1ccc(-c2cc(N3CCN(CCN4CCCC4)CC3)ncn2)s1 [CBK091169]	172.074
CC(C)(C)OC(=O)N1CCC(CNS(=O)(=O)c2ccc3c(c2)OCCO3)CC1 [CBK076971]	96.4259
Fc1ccc(COc2cccc(CNCc3ccccn3)c2)cc1 [CBK269987C]	107.741
CC(C)(C)c1ccnc(N[C@H]2CO[C@H]3[C@@H]2OC[C@@H]3NC(=O)NCc2ccccc2)n1 [CBK289522]	104.772
CC1CNCCC1n1nc(-c2cccs2)ccc1=O (stereo not drawn) [CBK284221]	72.6187
Cn1c(=O)c2c(ncn2CC(=O)Nc2ccccc2I)n(C)c1=O [CBK133275]	102.725
Cc1nnc(N2C(=O)c3oc4ccc(Cl)cc4c(=O)c3C2c2cccc(OCc3ccccc3)c2)s1 (stereo not drawn) [CBK266870]	103.327
O=c1ccc2cc(S(=O)(=O)Nc3ccc4[nH]ccc4c3)ccc2o1 [CBK062503]	92.0909
CC(=O)Nc1cc(NC(C)=O)c(C)c(C(=O)O)c1 [CBK286623]	89.1897
O=C(CCN1C(=O)/C(=C\C=C\c2ccccc2)SC1=S)Nc1ccc(C(=O)O)cc1 [CBK264818]	117.223
CC(=O)Nc1cccc(-n2nnnc2SCCCCCF)c1 [CBK306164]	86.1079
CCn1cc(C2CN(S(=O)(=O)c3cccc(C)c3Cl)CCO2)cn1 (stereo not drawn) [CBK304226]	81.0712
Cc1ccc(Oc2ncccc2NC(=O)CN2CCC(NC(=O)c3ccccc3)CC2)c2c1CCC2 [CBK074715]	93.1532
N#Cc1ccnc(SCC(=O)Nc2ccc(CN3CCOCC3)cc2)c1 [CBK306010]	34.2463
O=C1CC2(C(=O)N1Cc1ccccc1)C(=O)N(Cc1csc(-c3ccccc3)n1)c1ccccc12 (stereo not drawn) [CBK075673]	97.5151
